For 12 molecules, binding results are on record in article PMC5611444.

For test [1], the target named is T1, calnexin, endogenous human (human (endogenous in HEK293 and SH-SY5Y)) (UniProt P27824).
T1 sequence: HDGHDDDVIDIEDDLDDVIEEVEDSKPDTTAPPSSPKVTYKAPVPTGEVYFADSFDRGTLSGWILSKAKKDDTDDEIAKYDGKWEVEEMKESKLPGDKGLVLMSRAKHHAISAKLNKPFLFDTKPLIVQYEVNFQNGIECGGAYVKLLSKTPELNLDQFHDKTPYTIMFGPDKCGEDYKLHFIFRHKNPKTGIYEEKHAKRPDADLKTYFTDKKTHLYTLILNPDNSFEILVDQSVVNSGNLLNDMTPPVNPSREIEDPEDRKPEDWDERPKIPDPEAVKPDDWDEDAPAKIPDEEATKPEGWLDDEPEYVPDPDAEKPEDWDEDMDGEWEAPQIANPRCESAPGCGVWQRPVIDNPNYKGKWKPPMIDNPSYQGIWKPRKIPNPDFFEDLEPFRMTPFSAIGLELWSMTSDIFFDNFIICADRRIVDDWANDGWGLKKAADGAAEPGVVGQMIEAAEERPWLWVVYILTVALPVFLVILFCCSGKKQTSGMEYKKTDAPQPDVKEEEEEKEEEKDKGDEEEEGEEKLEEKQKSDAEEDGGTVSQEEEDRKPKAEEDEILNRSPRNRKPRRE
The test is described as follows: co-IP; HEK293 transfected with YFP-Arc constructs; calnexin precipitated with goat anti-calnexin C-20 on Protein G Sepharose, 500 ug total protein, overnight at 4°C; western blot with anti-GFP. (A western blot detects proteins with antibodies after separation by electrophoresis.)

For test [2], the target named is T2, GST-tagged full-length rat Arc (activity-regulated cytoskeleton-associated protein) with C-terminal histidine tag (rat) (UniProt Q63053).
T2 sequence: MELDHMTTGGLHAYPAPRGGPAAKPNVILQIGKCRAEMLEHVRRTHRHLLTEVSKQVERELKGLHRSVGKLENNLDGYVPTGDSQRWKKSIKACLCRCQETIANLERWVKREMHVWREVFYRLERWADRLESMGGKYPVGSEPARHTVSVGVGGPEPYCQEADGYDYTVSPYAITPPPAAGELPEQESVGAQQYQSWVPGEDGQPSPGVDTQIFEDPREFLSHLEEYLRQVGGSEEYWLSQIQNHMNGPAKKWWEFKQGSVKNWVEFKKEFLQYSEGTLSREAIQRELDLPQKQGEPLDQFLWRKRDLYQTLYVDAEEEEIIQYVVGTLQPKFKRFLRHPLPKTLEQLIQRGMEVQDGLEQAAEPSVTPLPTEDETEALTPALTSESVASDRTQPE
Nature of the test: pull-down; GST-Arc pull-down from HEK293, SH-SY5Y or PC12 lysates; western blot probed for calnexin; only the target purified.

Test [3] concerns the target T3, calnexin, endogenous rat (rat (endogenous in PC12, hippocampal neurons, brain)) (UniProt P35565).
T3 sequence: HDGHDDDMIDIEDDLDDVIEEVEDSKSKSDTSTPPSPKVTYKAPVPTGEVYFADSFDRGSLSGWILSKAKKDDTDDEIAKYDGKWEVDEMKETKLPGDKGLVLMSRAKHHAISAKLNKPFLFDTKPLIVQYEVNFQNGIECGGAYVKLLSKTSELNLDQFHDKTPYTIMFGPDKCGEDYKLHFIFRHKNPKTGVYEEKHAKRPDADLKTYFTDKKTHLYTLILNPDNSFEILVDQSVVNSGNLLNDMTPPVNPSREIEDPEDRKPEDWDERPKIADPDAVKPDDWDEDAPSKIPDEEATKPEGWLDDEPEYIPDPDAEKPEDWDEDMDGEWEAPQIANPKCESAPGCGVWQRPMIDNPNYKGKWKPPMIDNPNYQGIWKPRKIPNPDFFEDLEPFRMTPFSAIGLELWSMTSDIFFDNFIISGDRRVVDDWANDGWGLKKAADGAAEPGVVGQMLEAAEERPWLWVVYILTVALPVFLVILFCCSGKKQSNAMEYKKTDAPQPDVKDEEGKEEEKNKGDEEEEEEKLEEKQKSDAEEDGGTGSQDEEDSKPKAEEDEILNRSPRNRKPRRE
Nature of the test: proximity ligation; Duolink PLA on coronal rat brain sections 2 h after unilateral HFS of the perforant path; anti-Arc with anti-calnexin C-terminus; dentate gyrus, ipsilateral against contralateral.

The target of test [4] is T3, calnexin, endogenous rat (rat (endogenous in PC12, hippocampal neurons, brain)). Nature of the test: proximity ligation; Duolink PLA in fixed rat primary hippocampal neurons, naive or treated with BDNF for 4 h; anti-Arc with anti-calnexin C-terminus (two antibody combinations) or anti-calnexin N-terminus.

These are yes or no findings as the source states them, for the method shown. Binding seen in cells or lysates may run through a third protein. Some binding calls cover weakened binding; strength is not graded here. For some of these results: Tags and fused reporters may be left off the sequences shown.

B1: YFP-Arc (150-396) (domain or fragment, UniProt Q63053 150-396)
chain: VGVGGPEPYCQEADGYDYTVSPYAITPPPAAGELPEQESVGAQQYQSWVPGEDGQPSPGVDTQIFEDPREFLSHLEEYLRQVGGSEEYWLSQIQNHMNGPAKKWWEFKQGSVKNWVEFKKEFLQYSEGTLSREAIQRELDLPQKQGEPLDQFLWRKRDLYQTLYVDAEEEEIIQYVVGTLQPKFKRFLRHPLPKTLEQLIQRGMEVQDGLEQAAEPSVTPLPTEDETEALTPALTSESVASDRTQPE
With B1, in test [1], the binding entry is recorded as “binds”.

B2: YFP-Arc (1-100) (domain or fragment, UniProt Q63053 1-100)
chain: MELDHMTTGGLHAYPAPRGGPAAKPNVILQIGKCRAEMLEHVRRTHRHLLTEVSKQVERELKGLHRSVGKLENNLDGYVPTGDSQRWKKSIKACLCRCQE
As for B2, the binding result in test [1] is given as “no binding”.

B3: calnexin, endogenous human (protein, UniProt P27824 21-592)
chain: T1 sequence
On to B3, for which the binding result in test [2] is “binds”.

B4: Arc, endogenous rat (protein, UniProt Q63053 1-396)
chain: T2 sequence
In the case of B4, the binding entry in test [3] and in test [4] was “binds” throughout.

B5: YFP-Arc full length (1-396) (protein, UniProt Q63053 1-396)
chain: T2 sequence
In the case of B5, the binding result in test [1] is recorded as “binds”.

B6: YFP-Arc (225-396) (domain or fragment, UniProt Q63053 225-396)
chain: EEYLRQVGGSEEYWLSQIQNHMNGPAKKWWEFKQGSVKNWVEFKKEFLQYSEGTLSREAIQRELDLPQKQGEPLDQFLWRKRDLYQTLYVDAEEEEIIQYVVGTLQPKFKRFLRHPLPKTLEQLIQRGMEVQDGLEQAAEPSVTPLPTEDETEALTPALTSESVASDRTQPE
In the case of B6, the binding result in test [1] is on record as “no binding”.

B7: YFP-Arc (200-396) (domain or fragment, UniProt Q63053 200-396)
chain: GEDGQPSPGVDTQIFEDPREFLSHLEEYLRQVGGSEEYWLSQIQNHMNGPAKKWWEFKQGSVKNWVEFKKEFLQYSEGTLSREAIQRELDLPQKQGEPLDQFLWRKRDLYQTLYVDAEEEEIIQYVVGTLQPKFKRFLRHPLPKTLEQLIQRGMEVQDGLEQAAEPSVTPLPTEDETEALTPALTSESVASDRTQPE
Consider B7, for which, in test [1], the binding entry is “binds”.

B8: YFP-Arc (175-396) (domain or fragment, UniProt Q63053 175-396)
chain: TPPPAAGELPEQESVGAQQYQSWVPGEDGQPSPGVDTQIFEDPREFLSHLEEYLRQVGGSEEYWLSQIQNHMNGPAKKWWEFKQGSVKNWVEFKKEFLQYSEGTLSREAIQRELDLPQKQGEPLDQFLWRKRDLYQTLYVDAEEEEIIQYVVGTLQPKFKRFLRHPLPKTLEQLIQRGMEVQDGLEQAAEPSVTPLPTEDETEALTPALTSESVASDRTQPE
Consider B8, for which, in test [1], the binding entry is recorded as “binds”.

B9: YFP-Arc (241-396) (domain or fragment, UniProt Q63053 241-396)
chain: QIQNHMNGPAKKWWEFKQGSVKNWVEFKKEFLQYSEGTLSREAIQRELDLPQKQGEPLDQFLWRKRDLYQTLYVDAEEEEIIQYVVGTLQPKFKRFLRHPLPKTLEQLIQRGMEVQDGLEQAAEPSVTPLPTEDETEALTPALTSESVASDRTQPE
Consider B9, for which the binding result in test [1] is recorded as “no binding”.

B10: YFP-Arc (125-396) (domain or fragment, UniProt Q63053 125-396)
chain: RWADRLESMGGKYPVGSEPARHTVSVGVGGPEPYCQEADGYDYTVSPYAITPPPAAGELPEQESVGAQQYQSWVPGEDGQPSPGVDTQIFEDPREFLSHLEEYLRQVGGSEEYWLSQIQNHMNGPAKKWWEFKQGSVKNWVEFKKEFLQYSEGTLSREAIQRELDLPQKQGEPLDQFLWRKRDLYQTLYVDAEEEEIIQYVVGTLQPKFKRFLRHPLPKTLEQLIQRGMEVQDGLEQAAEPSVTPLPTEDETEALTPALTSESVASDRTQPE
With B10, the binding result in test [1] was “binds”.

B11: YFP-Arc (101-240) (domain or fragment, UniProt Q63053 101-240)
chain: TIANLERWVKREMHVWREVFYRLERWADRLESMGGKYPVGSEPARHTVSVGVGGPEPYCQEADGYDYTVSPYAITPPPAAGELPEQESVGAQQYQSWVPGEDGQPSPGVDTQIFEDPREFLSHLEEYLRQVGGSEEYWLS
Turning to B11, the binding entry in test [1] is recorded as “binds”.

B12: calnexin, endogenous rat (protein, UniProt P35565 21-591)
chain: T3 sequence
Take B12: the binding result in test [2] is listed as “binds”.
